The results in this text go back to publication PMC6919601, “Identification of Plasmodium dipeptidyl aminopeptidase allosteric inhibitors by high throughput screening” (PLoS ONE, 2019).

About 230 (0.21%) of roughly 110,000 compounds showed an effect of 50% or more. The list shows a part of the results.
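Note: 30 min substrate incubation versus DMSO and 10 µM JCP410 controls.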

Chain of DPAP1 (Q8IIJ9 whole entry, looked up): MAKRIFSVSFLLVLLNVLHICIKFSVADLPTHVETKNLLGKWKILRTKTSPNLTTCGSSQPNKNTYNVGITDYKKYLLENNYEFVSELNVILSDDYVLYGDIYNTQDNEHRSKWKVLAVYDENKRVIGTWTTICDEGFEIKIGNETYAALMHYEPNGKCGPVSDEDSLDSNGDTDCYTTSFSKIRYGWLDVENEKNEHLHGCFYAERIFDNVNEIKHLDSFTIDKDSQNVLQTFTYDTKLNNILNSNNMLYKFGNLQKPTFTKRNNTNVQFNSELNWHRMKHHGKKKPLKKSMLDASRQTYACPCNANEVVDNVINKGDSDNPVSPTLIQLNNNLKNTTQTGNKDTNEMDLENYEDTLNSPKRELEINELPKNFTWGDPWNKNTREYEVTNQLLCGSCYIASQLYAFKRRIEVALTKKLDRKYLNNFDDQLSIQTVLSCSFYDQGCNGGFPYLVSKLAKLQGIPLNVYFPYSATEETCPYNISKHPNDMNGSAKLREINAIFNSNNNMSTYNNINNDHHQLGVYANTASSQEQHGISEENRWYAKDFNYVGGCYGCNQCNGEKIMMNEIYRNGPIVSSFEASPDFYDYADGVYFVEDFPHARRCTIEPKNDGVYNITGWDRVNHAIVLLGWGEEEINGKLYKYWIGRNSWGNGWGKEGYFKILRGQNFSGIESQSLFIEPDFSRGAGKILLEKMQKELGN

The assay concerns the target DPAP1 (Plasmodium falciparum, UniProt Q8IIJ9). As to the kind of experiment: primary screen, percent inhibition; read by cleavage of a fluorogenic dipeptide substrate; higher = more effect of the substance. More on the design: species or system P. falciparum D10 trophozoite lysates; single well.
Turning to `CC(C)NS(=O)(=O)c1ccc(OCC(=O)N2CCC(Cc3ccccc3)CC2)cc1`, the “% Inhibition @ 10 uM” value was determined as 2.32%.
For the molecule `CCOc1cc2c(cc1OCC)C(c1cc(OC)ccc1OC)NCC2` (stereo not shown), the “% Inhibition @ 10 uM” value amounted to 0.475%.
Turning to `N#CCNC(=O)[C@H](Cc1cc(Cl)c(O)c(Cl)c1)NC(=O)c1cc(F)c(F)cc1F`, the “% Inhibition @ 10 uM” value is -3.04%.
Regarding `C/C(=N\OCC(=O)Nc1sc2c(c1C#N)CCCC2)c1ccc(Br)cc1`, the “% Inhibition @ 10 uM” value is 12%.
In the case of `CC(C)OCCCNC(=O)c1cc2ccc3cccnc3c2[nH]1`, the “% Inhibition @ 10 uM” value was -3.09%.
As for `CCOC(=O)C1=C(C)N(c2ccccc2)C(=O)C1`, the “% Inhibition @ 10 uM” value was determined as 2.94%.
As to `CCOP(=O)(OCC)C1(C(=O)O)CCCC1`, the “% Inhibition @ 10 uM” value is on record as -0.546%.
Consider `Cc1cc(C)c(C(=O)/C(=C/c2cccc3ccccc23)c2ccccc2)c(O)n1`, for which the “% Inhibition @ 10 uM” value was -1.96%.
`O=C(NC1CCCc2ccccc21)C1CCCN(c2ncnc3onc(-c4ccc(F)cc4)c23)C1` (stereo not shown): the “% Inhibition @ 10 uM” value came to 7.46%.
In the case of `c1ccc(C2OCCN3CCCCC23)cc1` (stereo not shown) it was -0.105%; in that of `COc1ccc(NC(=O)CN(c2cccc(OC)c2)S(C)(=O)=O)cc1`, -13.3%.
For the molecule `COc1ccc(OC)c(S(=O)(=O)c2ccc(Br)cc2)c1`, the “% Inhibition @ 10 uM” value was -0.0369%.
On to `CCOCC(=O)Nc1ccc(C(=O)c2ccccc2)cc1`, for which the “% Inhibition @ 10 uM” value is recorded as -4.15%.
Consider `CC(=O)c1ccc(NC(=O)c2c(C)nn(-c3ccccc3)c2Cl)cc1`, for which the “% Inhibition @ 10 uM” value is -0.864%.
As for `O=C1CC(N2CCCCC2)C(=O)N1c1cccc(Br)c1` (stereo not shown), the “% Inhibition @ 10 uM” value was -1.26%.
With `Cc1cc(C)c2nc(N3CCC(C(=O)NCCN4CCOCC4)CC3)sc2c1`, the “% Inhibition @ 10 uM” value is on record as 0.137%.
Consider `Cc1ccc(C2=N/C(=C\c3cc(Br)cs3)C(=O)O2)cc1`, for which the “% Inhibition @ 10 uM” value was -3.15%.
Regarding `O=C(Nc1ccc(Cl)cc1)c1cc(Br)ccc1NS(=O)(=O)c1ccc(Cl)c([N+](=O)[O-])c1`, the “% Inhibition @ 10 uM” value was -1.42%.
Consider `O=C(COc1ccc(Cl)cc1Cl)Nc1cccc(F)c1`, for which the “% Inhibition @ 10 uM” value came out at 4.57%.
In the case of `O=C(Nc1nc(-c2ccc3ccccc3c2)cs1)c1ccc(S(=O)(=O)N2CCCCC2)cc1`, the “% Inhibition @ 10 uM” value is -3.92%.
For the molecule `COc1ccc(C2C3=C(Nc4ncnn42)c2ccccc2OC3c2ccccc2Cl)cc1OC` (stereo not shown), the “% Inhibition @ 10 uM” value is -1.62%.
Consider `Cc1cc(C)cc(OCCCCCN2CCNCC2)c1`, for which the “% Inhibition @ 10 uM” value is on record as 2.84%.
To `O=C(Nc1cccc(O)c1)c1cccc(F)c1` belongs -4.21%.
As for `Cc1ccc(-c2nnc(S)n2/N=C/c2c[nH]c3ccccc23)cc1`, the “% Inhibition @ 10 uM” value is given as -0.85%.
On to `O=C1NC(=O)C(CC2CCCCC2)C(=O)N1`, for which the “% Inhibition @ 10 uM” value is listed as 7.42%.
Regarding `Cc1ccc(-c2cc(C(=O)Nc3ccc(C(N)=O)cc3)c3ccccc3n2)o1`, the “% Inhibition @ 10 uM” value worked out at 6.1%.
As for `CCOC(=O)c1sc2c(c1NC(=O)c1ccc3c(c1)OCCO3)CCCC2`, the “% Inhibition @ 10 uM” value is reported as 17%.
As for `C=CCN1C(=O)/C(=C\c2sccc2C)C(C(=O)OC)=C1C`, the “% Inhibition @ 10 uM” value was 1.81%.
With `COC(=O)C1=C(C)OC(N)=C(C#N)C1c1ccccc1OC` (stereo not shown), the “% Inhibition @ 10 uM” value was -0.546%.
For the molecule `Cc1ccc(C(=S)Nc2ccccn2)cc1`, the “% Inhibition @ 10 uM” value worked out at 15.5%.
In the case of `C#CCOC(=O)CCCC(=O)Nc1ccc(Cl)cc1Cl` it was 1.63%.
As for `O=C(CN1C(=O)c2cccc3cccc(c23)C1=O)NCC1CCCO1` (stereo not shown), the “% Inhibition @ 10 uM” value was 19.7%.
With `Cc1cccc(C(=O)Nc2ccc(C)c(O)c2)c1`, the “% Inhibition @ 10 uM” value is reported as 2.5%.
Consider `CCCCC(NS(=O)(=O)c1ccc(C)cc1)C(=O)O` (stereo not shown), for which the “% Inhibition @ 10 uM” value is reported as -8.12%.
In the case of `CC1(C)CC(=O)C2=C(C1)N(c1nc[nH]n1)C(N)=C(C#N)C2c1cccc(Cl)c1` (stereo not shown) it was 5.48%; in that of `CSc1ccc(/C=C2\C(=N)N3N=C(N4CCCCC4)SC3=NC2=O)cc1`, -1.66%.
As to `CCCOc1ccc(C2C(C(=O)OC)=CN(CC3CCCO3)C=C2C(=O)OC)cc1` (stereo not shown), the “% Inhibition @ 10 uM” value is recorded as -7.23%.
For `CC(C)C[C@H](NC(=O)c1ccc(NC(=O)OCc2ccccn2)cc1)C(=O)NCC#N`, the “% Inhibition @ 10 uM” value was 0.744%.
With `Cc1c(C(=O)NCCN(C)C)oc2c1-c1nn(Cc3ccc(Cl)cc3)cc1CC2`, the “% Inhibition @ 10 uM” value is recorded as -9.32%.
In the case of `COc1cccc(CN2CCN(Cc3ccc(F)cc3)CC2)c1`, the “% Inhibition @ 10 uM” value is recorded as 0.214%.
`O=C(NCc1ccccc1Cl)C1CCC(CNS(=O)(=O)c2cccc3nsnc23)CC1` (stereo not shown): the “% Inhibition @ 10 uM” value is on record as -2.25%.
In the case of `CC1CCC(C(=O)NC(C(=O)N2CCN(Cc3ccccc3)CC2)C(C)C)CC1` (stereo not shown), the “% Inhibition @ 10 uM” value is recorded as -1.73%.
To `Cc1ccc(-c2csc(NC(=O)c3cc4ccccc4o3)n2)cc1` belongs 3.79%; to `CCN(C)CCc1c[nH]c2ccccc12`, 0.76%; to `CC1CCCC(NC(=O)CN2C(=O)CSc3ncccc32)C1C` (stereo not shown), -4.15%.
Take `Cc1nc(C)c(-c2ccccc2)c(O)n1`: the “% Inhibition @ 10 uM” value is recorded as 6.52%.
To `CN(Cc1ccccc1)C(=O)Cn1ncc2c3ccccc3n(Cc3ccc(F)cc3)c2c1=O` belongs -3.35%; to `CCNC(=O)c1c(NC(=O)c2nc(SC)ncc2Cl)sc2c1CCCC2`, 2.19%.
For `CC(=O)N(CCN(Cc1ccccc1)C(C)=O)Cc1ccccc1`, the “% Inhibition @ 10 uM” value is recorded as 0.505%.
Regarding `CCN1CCC(NCCCOC)CC1`, the “% Inhibition @ 10 uM” value turned out to be 3.19%.
Take `COCCCn1c(CCC(=O)O)ccc1-c1ccc(C)cc1`: the “% Inhibition @ 10 uM” value is listed as -6.64%.
As to `CCN(CC)CCN(C)C1CCCCCCC1`, the “% Inhibition @ 10 uM” value is -9.93%.
